# From the supplement of paper PMC4604168 (melanoma cell lines)
# This is one part of the list. Single values are uncertain, as repeats are few or missing.
# What was measured:
# Experiment in all cases: cell count relative to DMSO control; melanoma cells; higher = more viable cells
# Settings in all cases: library dose: standard library concentration; 72 h
# A101D = test system: A101D
# A2058 = test system: A2058
# A375 = test system: A375
# 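Note: cells treated in 1,536-well plates, then fixed and DAPI-stained, with nuclei counted from automated high-throughput microscope images.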
Compound,cell count (A101D) [%],cell count (A2058) [%],cell count (A375) [%]
"COc1cc([C@@H]2c3cc4c(cc3[C@@H](O[C@@H]3O[C@@H]5CO[C@@H](C)O[C@H]5[C@H](O)[C@H]3O)[C@H]3COC(=O)[C@H]23)OCO4)cc(OC)c1O [etoposide] + COc1ccc(Cl)c(Nc2nc3ccccc3nc2NS(=O)(=O)c2cccc(NC(=O)C(C)(C)N)c2)c1 [XL147] (first compound 0.1 µM, partner dose 4 µM)",86.1,69.6,77.9
"Cn1cnc2c(F)c(Nc3ccc(Br)cc3Cl)c(C(=O)NOCCO)cc21 [selumetinib] + CC(=O)c1c(C)c2cnc(Nc3ccc(N4CCNCC4)cn3)nc2n(C2CCCC2)c1=O [palbociclib] (first compound 0.075 µM, partner dose 0.2 µM)",64.6,89.2,82.9
"Cn1cnc2c(F)c(Nc3ccc(Br)cc3Cl)c(C(=O)NOCCO)cc21 [selumetinib] + C=C(c1ccc(C(=O)O)cc1)c1cc2c(cc1C)C(C)(C)CCC2(C)C [Bexarotene] (first compound 0.075 µM, partner dose 10 µM)",90.4,104,86.3
"CCN(CC)CCNC(=O)c1c(C)[nH]c(/C=C2\C(=O)Nc3ccc(F)cc32)c1C [sunitinib] + CC(C)C[C@H](NC(=O)[C@H](Cc1ccccc1)NC(=O)c1cnccn1)B(O)O [Bortezomib] (first compound 2 µM, partner dose 0.005 µM)",9.18,11.4,100
"CCN(CC)CCNC(=O)c1c(C)[nH]c(/C=C2\C(=O)Nc3ccc(F)cc32)c1C [sunitinib] + O=C(O)c1ccc(-c2c[nH]c3ncc(-c4ccccc4)cc23)cc1C1CCCC1 [GSK650394] (first compound 2 µM, partner dose 0.8 µM)",57.9,85.1,89.9
"CCN(CC)CCNC(=O)c1c(C)[nH]c(/C=C2\C(=O)Nc3ccc(F)cc32)c1C [sunitinib] + CO[C@@H]1[C@H](N(C)C(=O)c2ccccc2)C[C@H]2O[C@]1(C)n1c3ccccc3c3c4c(c5c6ccccc6n2c5c31)C(=O)NC4 [Midostaurin] (first compound 2 µM, partner dose 0.4 µM)",56.2,47.5,71.3
"C[C@]1(O)C[C@@H](c2nc(-c3ccc4ccc(-c5ccccc5)nc4c3)c3c(N)nccn32)C1 + Nc1cccc2c1CN(C1CCC(=O)NC1=O)C2=O [lenalidomide] (first compound 2 µM, partner dose 5 µM)",95.9,94.7,72.4
"COc1cc([C@@H]2c3cc4c(cc3[C@@H](O[C@@H]3O[C@@H]5CO[C@@H](C)O[C@H]5[C@H](O)[C@H]3O)[C@H]3COC(=O)[C@H]23)OCO4)cc(OC)c1O [etoposide] + O=C(Nc1cc(C(F)(F)F)cc(C(F)(F)F)c1)c1cc(Cl)ccc1O [IMD0354] (first compound 0.1 µM, partner dose 0.08 µM)",79.8,79.2,77.3
"CCN(CC)CCNC(=O)c1c(C)[nH]c(/C=C2\C(=O)Nc3ccc(F)cc32)c1C [sunitinib] + CC1(C)NC(=O)N(c2ccc([N+](=O)[O-])c(C(F)(F)F)c2)C1=O [nilutamide] (first compound 2 µM, partner dose 5 µM)",62,63.7,120
"Cn1cnc2c(F)c(Nc3ccc(Br)cc3Cl)c(C(=O)NOCCO)cc21 [selumetinib] + COCC[n+]1c2c(n(Cc3cnccn3)c1C)C(=O)c1ccccc1C2=O [YM155] (first compound 0.075 µM, partner dose 0.002 µM)",75.7,20.6,84.6
"CCN(CC)CCNC(=O)c1c(C)[nH]c(/C=C2\C(=O)Nc3ccc(F)cc32)c1C [sunitinib] + CN(c1ncccc1CNc1nc(Nc2ccc3c(c2)CC(=O)N3)ncc1C(F)(F)F)S(C)(=O)=O [PF562271] (first compound 2 µM, partner dose 0.4 µM)",55.7,69.3,82.6
"Cn1cnc2c(F)c(Nc3ccc(Br)cc3Cl)c(C(=O)NOCCO)cc21 [selumetinib] + Cn1c(Nc2ccc(C(F)(F)F)cc2)nc2cc(Oc3ccnc(-c4ncc(C(F)(F)F)[nH]4)c3)ccc21 [CHIR265] (first compound 0.075 µM, partner dose 0.4 µM)",49.9,74.8,61.1
"CCN(CC)CCNC(=O)c1c(C)[nH]c(/C=C2\C(=O)Nc3ccc(F)cc32)c1C [sunitinib] + Cc1nc(Nc2ncc(C(=O)Nc3c(C)cccc3Cl)s2)cc(N2CCN(CCO)CC2)n1 [dasatanib] (first compound 2 µM, partner dose 0.02 µM)",61.4,49.9,70.9
"C[C@]1(O)C[C@@H](c2nc(-c3ccc4ccc(-c5ccccc5)nc4c3)c3c(N)nccn32)C1 + COc1ccc(-c2ccc3c(N4CCOCC4)nc(N4C[C@@H](C)O[C@@H](C)C4)nc3n2)cc1CO [KU0063794] (first compound 2 µM, partner dose 0.1 µM)",87.5,106,90.4
"Cn1cnc2c(F)c(Nc3ccc(Br)cc3Cl)c(C(=O)NOCCO)cc21 [selumetinib] + Cc1cc(Nc2cc(N3CCN(C)CC3)nc(/C=C/c3ccccc3)n2)n[nH]1 [ENMD2076] (first compound 0.075 µM, partner dose 0.2 µM)",68.3,90.3,126
"C[C@]1(O)C[C@@H](c2nc(-c3ccc4ccc(-c5ccccc5)nc4c3)c3c(N)nccn32)C1 + C[C@]1(c2nc3c(C(N)=O)cccc3[nH]2)CCCN1 [Veliparib] (first compound 2 µM, partner dose 7 µM)",89.9,76.7,85.6
"CCN(CC)CCNC(=O)c1c(C)[nH]c(/C=C2\C(=O)Nc3ccc(F)cc32)c1C [sunitinib] + Cn1c(=O)n(-c2ccc(C(C)(C)C#N)cc2)c2c3cc(-c4cnc5ccccc5c4)ccc3ncc21 [NVP-BEZ235] (first compound 2 µM, partner dose 0.02 µM)",75.1,43.2,81.8
"COc1cc([C@@H]2c3cc4c(cc3[C@@H](O[C@@H]3O[C@@H]5CO[C@@H](C)O[C@H]5[C@H](O)[C@H]3O)[C@H]3COC(=O)[C@H]23)OCO4)cc(OC)c1O [etoposide] + C[C@@H](Oc1cc(-c2cnn(C3CCNCC3)c2)cnc1N)c1c(Cl)ccc(F)c1Cl [Crizotinib] (first compound 0.1 µM, partner dose 1 µM)",86.3,52.5,73.3
"CCN(CC)CCNC(=O)c1c(C)[nH]c(/C=C2\C(=O)Nc3ccc(F)cc32)c1C [sunitinib] + C[C@]1(c2nc3c(C(N)=O)cccc3[nH]2)CCCN1 [Veliparib] (first compound 2 µM, partner dose 7 µM)",74,59.1,113
"CCN(CC)CCNC(=O)c1c(C)[nH]c(/C=C2\C(=O)Nc3ccc(F)cc32)c1C [sunitinib] + Nc1nc(F)nc2c1ncn2[C@@H]1O[C@H](CO)[C@@H](O)[C@@H]1O [fludarabine] (first compound 2 µM, partner dose 1 µM)",57.7,89.6,33.8
"C[C@]1(O)C[C@@H](c2nc(-c3ccc4ccc(-c5ccccc5)nc4c3)c3c(N)nccn32)C1 + Cc1cc(Nc2cc(N3CCN(C)CC3)nc(/C=C/c3ccccc3)n2)n[nH]1 [ENMD2076] (first compound 2 µM, partner dose 0.2 µM)",76.4,93.6,88
"COc1cc([C@@H]2c3cc4c(cc3[C@@H](O[C@@H]3O[C@@H]5CO[C@@H](C)O[C@H]5[C@H](O)[C@H]3O)[C@H]3COC(=O)[C@H]23)OCO4)cc(OC)c1O [etoposide] + C[C@@H](N)c1ccc(C(=O)Nc2ccnc3[nH]ccc23)cc1 [RKI983] (first compound 0.1 µM, partner dose 2 µM)",62.1,47.2,69.2
"CCN(CC)CCNC(=O)c1c(C)[nH]c(/C=C2\C(=O)Nc3ccc(F)cc32)c1C [sunitinib] + O=C(O)[C@@H]1[O][Sb](=[O])([O][Sb]2(=[O])[O][C@H]([C@H](O)CO)[C@H](O)[C@H](C(=O)O)[O]2)[O][C@H]([C@H](O)CO)[C@@H]1O [stibogluconate] (first compound 2 µM, partner dose 10 µM)",62.6,72.3,125
"Cn1cnc2c(F)c(Nc3ccc(Br)cc3Cl)c(C(=O)NOCCO)cc21 [selumetinib] + COc1cc(Nc2ncc(F)c(Nc3ccc4c(n3)NC(=O)C(C)(C)O4)n2)cc(OC)c1OC [Tamatinib] (first compound 0.075 µM, partner dose 2 µM)",73.9,61.4,88.8
"C[C@]1(O)C[C@@H](c2nc(-c3ccc4ccc(-c5ccccc5)nc4c3)c3c(N)nccn32)C1 + C=CCNC1=C2C[C@@H](C)C[C@H](OC)[C@H](O)[C@@H](C)/C=C(\C)[C@H](OC(N)=O)[C@@H](OC)/C=C\C=C(/C)C(=O)NC(=CC1=O)C2=O [Tanespimycin] (first compound 2 µM, partner dose 0.01 µM)",68.2,57.7,87.6
